In publication PMC12136788:
The list shows a part of the results.

B1: chr19:36009119:36009553:-|three_prime_utr|ENSG00000239382|control|control|control (ssRNA)
RNA: GGGAGUUCUACAGUCCGACGAUCGCUGGUGCUCCGCGGCCCCGCCUACACGCGUCUUCUCCACGGCAUCGCCGCCGCCCGCGUAGACGCGCUGGACGCCGCCUCCUCGCCGCCCAAUGCGGCAGCCUGCCCGUCGGCGCGGCCCAACAGAGGAUUGAGCAUCA
B2: chr9:136477283:136477384:-|CDS|ENSG00000148396|msi1|total|mutant (ssRNA)
RNA: GGGAGUUCUACAGUCCGACGAUCGCCCCCGCAGGGUUUUCUCAGCACCCCGGUUUGCUUGUUCCUCACACACAUGCCAGAGACCGCUCUCAGGGACCCUGUGAGCCCCUGCCUGGACCUCUGACACAGCCCAGAGCACAUGCCCAACAGAGGAUUGAGCAUCA
B3: chr21:39342314:39343159:-|three_prime_utr|ENSG00000205581|control|control|control (ssRNA)
RNA: GGGAGUUCUACAGUCCGACGAUCCCCUUCUUGUACAAUCCAGAGGAAUAUUUUUAUCAACUAUUUUGUAAAUGCAAGUUUUUUAGUAGCUCUAGAAACAUUUUUAAGAAGGAGGGAAUCCCACCUCAUCCCAUUUUUUAAGUGCAACAGAGGAUUGAGCAUCA
B4: ENSG00000087460:stop:overlap|stop_codon|ENSG00000087460|stop_codon|NA|stop_codon (ssRNA)
RNA: GGGAGUUCUACAGUCCGACGAUCGAGGCGCCUUCGGCUCGGGCCAUGGCGCCCGGCGCCGGGGGCGCGAGGAGCGGCUCAUCUAGUCAGACCCCCCACCCCGCCACCGCCACCAGACACCACCAUCGCUGUGUAGUGUGCUGGCAACAGAGGAUUGAGCAUCA
B5: chr3:127036549:127036650:+|3pUTR|ENSG00000114554|msi1|total|mutant (ssRNA)
RNA: GGGAGUUCUACAGUCCGACGAUCGUCUACUGGGACAGCAGUCUCCGAGCUACUCCGUACCUCCCUCUGCCAGGUCGUGGAGUCCGGCCCCAGUCCCUACUUGUCACUGGUUCCCACUGUGCUCCUAACUGUGCAGCACCUGGGCAACAGAGGAUUGAGCAUCA
B6: ENSG00000107863:be:win_5051|CDS|ENSG00000107863|bound_else_gene|NA|bound_elsewhere_windowed (ssRNA)
RNA: GGGAGUUCUACAGUCCGACGAUCGUUUAGAUAGCCGGAGACAGCUCUUCAGUUCCCAUAAACUCAUCGAAUGUGAUACUCUUUCCAGGAAAAAAUCAGCUAGAUUCAAGUCAGAUAGUGGAAGUCUAGGAGAUGCCAAGAAUGCAACAGAGGAUUGAGCAUCA
B7: chr12:39550845:39550946:-|3pUTR|ENSG00000173208|unk|FALSE|unique (ssRNA)
RNA: GGGAGUUCUACAGUCCGACGAUCGGUUCCAAGUAUAGUUUCAUAUUUGGCAAUAGAUUCAUCUUAUUCUAAUAUGUUUGGAAUAGCUUUUUGAUUCAAUGAGUCUAGGAAAAUCUGUUACACAUUGAAACCCAAGUCCAGAGACAACAGAGGAUUGAGCAUCA
B8: chr6:53267885:53267986:-|3pUTR|ENSG00000012660|msi1_unk|FALSE|overlapping (ssRNA)
RNA: GGGAGUUCUACAGUCCGACGAUCUUUAAUGUAAAUCUAAUAGUACUUGUAAUUUCUUUCUGCUUAGAAUCUAAAGAUGUGUUUAGAACCUCUUGUUUAAAAAUAAUAGACUGCUUAUCAUAAAAUCACAUCUCACACAUUUGACAACAGAGGAUUGAGCAUCA
B9: chr17:58495858:58495960:-|CDS|ENSG00000108389|unk|FALSE|unique (ssRNA)
RNA: GGGAGUUCUACAGUCCGACGAUCAGAAGAGACUAAGGGACCAGCUCCAGACCCUUCUGCCCAGGAUGAGCUGGGUAGGACUUUAGAUGGCAUAGGGGAGCCACCUGAACAUUGUCCUGAAACAGAAGCUGUCAGUGCACUCUCCAACAGAGGAUUGAGCAUCA
B10: chr17:8173470:8173636:-|3pUTR|ENSG00000179029|msi1|total|mutant (ssRNA)
RNA: GGGAGUUCUACAGUCCGACGAUCUGUUUGUCUGUAUCGUCAGGUGGGAUAAUCCUUACCUGUUCCUCCUCCGGAGGGCAGAUCCGAACAUGAUGAUUGGAGAUGCAUGAAACGUGAUUAACGUCUCUGCGUAAUCAGGACUUGCAACAGAGGAUUGAGCAUCA
B11: chr22:24226630:24226767:-|CDS|ENSG00000099998|control|control|control (ssRNA)
RNA: GGGAGUUCUACAGUCCGACGAUCCUUCUCAACAGAGUCUAUGGCCAGGCCUGAAGGGAGGGUGAACGUGUACCACCACCUUGUAGAGACGCUCAAGUUUGCCAAGGGGCAGAGGUGGAGGCUGGGGGACCCUCGAAGCCACCCCAACAGAGGAUUGAGCAUCA
B12: ENSG00000066933:stop:overlap|stop_codon|ENSG00000066933|stop_codon|NA|stop_codon (ssRNA)
RNA: GGGAGUUCUACAGUCCGACGAUCAUAGCUCAGAGAAUUUGAAUAUGGAGUCUGAAUAUGCUAUCUCUGAGAAAUCAGAAGCUUAGCCCUUAGCUCCCUGAAGACAGCUGGCAAGUCUGAACCUUCCAGCAAGUUGCGAAAGCACAACAGAGGAUUGAGCAUCA
B13: chr5:10679541:10679642:-|3pUTR|ENSG00000112977|msi1|total|mutant (ssRNA)
RNA: GGGAGUUCUACAGUCCGACGAUCCUUCAAGGCCCUGUCACCACCUAUUUCCUGAUCAGUUGGUAUAAACUGAGGGUGGCUUUCCGAGACCCAGACUUGGUUGGCAGCGCUGCCAUGGAACACCCCAGCAAGCACCUCCCAGCCCAACAGAGGAUUGAGCAUCA
B14: chr12:57010726:57010903:-|three_prime_utr|ENSG00000166863|control|control|control (ssRNA)
RNA: GGGAGUUCUACAGUCCGACGAUCGAGGGACCCAUAAUUGCAGCUUUCAUAAUCUUACCAUUGAGGGAGCAUUCCCAACCUGUUAGGUGUCAGGCAGAAUAGGACAUAAGGUUUCUGGGAGCUGGCAUUUAAAGAUUAGAUGAGCAACAGAGGAUUGAGCAUCA

molecular target: MSI1 full-length (mouse, UniProt Q61474 1-362); assay: nsRBNS (natural sequence RNA bind-n-seq); RBNS binding buffer (assumed for nsRBNS): 25 mM Tris pH 7.5, 150 mM KCl, 3 mM MgCl2, 0.01% Triton X-100, 500 ug/ml BSA, 20 U/ml SUPERase-In, 4 C; UNK is unkempt and MSI1 is Musashi-1; names of the RNAs are library labels; protein concentration not given here; high values mean tight binding
UniProt Q61474, sequence (Q61474 whole entry): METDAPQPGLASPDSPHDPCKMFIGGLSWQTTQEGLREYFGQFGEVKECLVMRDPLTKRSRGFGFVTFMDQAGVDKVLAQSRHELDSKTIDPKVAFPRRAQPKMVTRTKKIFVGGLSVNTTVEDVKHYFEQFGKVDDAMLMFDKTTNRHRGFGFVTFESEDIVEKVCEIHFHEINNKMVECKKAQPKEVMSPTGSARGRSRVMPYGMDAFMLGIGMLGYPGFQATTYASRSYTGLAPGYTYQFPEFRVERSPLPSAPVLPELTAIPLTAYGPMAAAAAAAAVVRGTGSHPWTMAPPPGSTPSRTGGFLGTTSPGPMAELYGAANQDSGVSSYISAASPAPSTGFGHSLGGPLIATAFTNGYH

Q: For B1, which binding signal is on record?
A: 0.439 enrichment R

Q: For B2, which binding signal is on record?
A: 0.53 enrichment R

Q: B3 was tested. Which binding signal did it give?
A: 3.5 enrichment R

Q: Which binding signal does the source give for B4 here?
A: 0.204 enrichment R

Q: Which binding signal does the source give for B5 here?
A: 0.462 enrichment R

Q: Which binding signal does the source give for B6 here?
A: 0.921 enrichment R

Q: For B7, which binding signal is on record?
A: 0.329 enrichment R

Q: B8 was tested. Which binding signal did it give?
A: 26.6 enrichment R

Q: Which binding signal does the source give for B9 here?
A: 0.568 enrichment R

Q: How did the binding signal turn out when B10 was run?
A: 0.396 enrichment R

Q: For B11, which binding signal is on record?
A: 0.57 enrichment R

Q: For B12, which binding signal is on record?
A: 16.9 enrichment R

Q: For B13, which binding signal is on record?
A: 0.763 enrichment R

Q: Which binding signal does the source give for B14 here?
A: 0.899 enrichment R
